Assay results: the supplement of paper PMC10338343
± gives the standard deviation. The entries are a selection whose mix differs from that of the whole data set.

System: MIWI (PIWIL1) piRISC loaded with L1MC piRNA (30 nt)
Assay: pre-steady-state target cleavage rate (min^-1); MIWI and MILI are mouse PIWI proteins and EfPiwi is from a freshwater sponge; tags in brackets are library labels; higher = faster piRNA-guided slicing of the target
Details: guide: L1MC piRNA 5'p-UAACUAAAUACUAUGCAAGCUGUAGGUCCU
Outline: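 Active affinity-purified piRISC carrying one synthetic guide (1 nM) was mixed with a transcribed, DNA-blocked target RNA library […] in HEPES–potassium acetate buffer at 33 °C for 0–8 or 0–960 min, with or without 500 nM GTSF1 partner protein. Uncleaved targets were then sequenced and normalised to depth and to weakly complementary targets. Three trials were pooled, and k3 was capped at 0.0001 min^-1. A burst-and-steady-state fit was applied to obtain the pre-steady-state cleavage rate.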

[1] = auxiliary factor: 500 nM mouse GTSF1
[2] = auxiliary factor: none (no GTSF1)
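Note: 1 nM active piRISC with 0.1 nM target library at 33 °C single turnover.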

Row | Sequence | pre-steady-state target cleavage rate [1] | pre-steady-state target cleavage rate [2]
1 | UGGACGUACAGCUUGCAUAGUAUUUAGUUA | 1.26 ± 0.051 | 0.0691 ± 0.012
2 | UCCUGCUACAGCUUGCAUAGUUUAUAGUUA | 0.122 ± 0.023 | 0.00989 ± 0.0026
3 | UCCUGGAUGUGCUUGCAUAGUAUUUAGUUU [g2:g20:cont:t1U] | 0.481 ± 0.037 | 0.0457 ± 0.01
4 | AGGACCUACAGCUAGCAAAGUAUUUAGUUA | 0.985 ± 0.048 | 0.00821 ± 0.0025
5 | UCGACCUACAGCUUGCAAAGUAUUUACUUA | 0.507 ± 0.029 | 0.0198 ± 0.0042
6 | UCCUGGAACUGCUUGCAAAGUAUUUAGUUA | 0.755 ± 0.035 | 0.0155 ± 0.0042
7 | UCGACCUACAGCAUGCAUAGUAUUUAGAUA | 0.538 ± 0.041 | 0.0119 ± 0.004
8 | UCCUCCUACAGCUUGGAUAGUAUAUAGUUA | 0.509 ± 0.04 | 0.0165 ± 0.0038
9 | UCCUGGAUGAGCUUGCAUAGUAUUUCGUUA | 0.35 ± 0.053 | 0.0211 ± 0.0053
10 | UCCUGGAUCAGCUUGCAUAGUAUUUAGCUUA | 0.332 ± 0.024 | 0.0283 ± 0.0079
11 | AGGACCUACACCUUGCAUAGUUUUUAGUUA | 0.299 ± 0.028 | 0.0296 ± 0.0066
12 | UCCUGGAACAGCUUCAUAGUAUUUAGUUA | 0.95 ± 0.051 | 0.00772 ± 0.0027
13 | UCGUCCUACAGCUUGCAUUGUAUUUAGUUA | 1.08 ± 0.041 | 0.0316 ± 0.007
14 | UCCUCCUAAGCUUGCAUAGUAUUUAGUUA | 0.693 ± 0.03 | 0.049 ± 0.01
15 | UCCUGGAUGAGCUGCAUAGUAUUUAGUUA | 0.0636 ± 0.0082 | 0.00507 ± 0.0026
16 | UCCUCCAUCAGCUUGCAUAGUAUUUAGAAA | 0.169 ± 0.031 | 0.00618 ± 0.0023
17 | AGGACCUAGAGCUUGCUUAGUAUUUAGUUA | 1.28 ± 0.07 | 0.0372 ± 0.0089
18 | UGGACCUACAGCUAGCAUAGUAUUUACUUA | 0.488 ± 0.036 | 0.0406 ± 0.0082
19 | UCCUGGAUGUCGAACGUUAGUUAUUAGUUA | < 0.0001 | < 0.0001
20 | UCCUGGAUGUGCUUGCAUAGAAUUUAGUAA | 0.0202 ± 0.0069 | 0.0041 ± 0.0025

Row | Sequence | pre-steady-state target cleavage rate [1] | pre-steady-state target cleavage rate [2]
21 | UGCACCUACAGCAUGCAUAGUAUUUAGUUA | 0.998 ± 0.092 | 0.0271 ± 0.0047
22 | UGGACCUACAGCUUGGAUAGUAUUAAGUUA | 0.732 ± 0.051 | 0.0338 ± 0.0091
23 | UCCUGGAACAGCUUUGCAUAGUAUUUAGUUA | 1.04 ± 0.051 | 0.0221 ± 0.0054
24 | UCCUGGUACAGCUUGCAUACUUUUUAGUUA | 0.023 ± 0.0077 | 0.00533 ± 0.0023
25 | UCCACCUACAGCUUGCAUAGUAUUAUAGUUA | 0.699 ± 0.047 | 0.0142 ± 0.0026
26 | AGGACCUAGAGCUUGCAUAGUAUUUACAAA | 0.123 ± 0.033 | 0.00394 ± 0.003
27 | UGGACCUACAGCUAGCAUAGUUUUUAGUUA | 0.38 ± 0.017 | 0.0216 ± 0.0055
28 | UCGACCUACAGCUUCAUAGUAUUUAGUUA | 1.14 ± 0.042 | 0.0128 ± 0.0025
29 | UCCUGGAAAAGCUUGCAUAGUAUUUAGUUA | 0.987 ± 0.053 | 0.0622 ± 0.013
30 | AGGAGCUACAGCUUGCAUAGUAUUUUCAAA | 0.239 ± 0.038 | 0.0044 ± 0.0031
31 | UGCACCUACAGCUAGCAUAGUAUUUAGUUA | 1.22 ± 0.097 | 0.0194 ± 0.0043
32 | AGGACCUACAGCUUGCAUAGUAUUUUCUUA | 0.33 ± 0.049 | 0.03 ± 0.0093
33 | UCCUGGAUGAGCUAGCAUAGUAUUUAGUUA | 0.617 ± 0.05 | 0.0107 ± 0.0036
34 | UCCUGGAUCUGCAUGCAUAGUAUUUAGUUA | 0.204 ± 0.024 | 0.00439 ± 0.002
35 | UCCUGGAUGAGCUUGCAUAGUAUUUAGUUUA | 0.737 ± 0.04 | 0.0524 ± 0.012
36 | UCCACCUACAGCUUGGCAUAGUAUUUAGUUA | 0.862 ± 0.13 | 0.0108 ± 0.0027
37 | UCCUCCUACAGCUUGCUUAGUAUUUAGUAA | 0.561 ± 0.037 | 0.0111 ± 0.0028
38 | UCCUGGUACAGCUUGCAUAGUAUAAAGUAA | 0.194 ± 0.037 | 0.00352 ± 0.0035
39 | UCCUGGAACAGCUUGCAUAGUAUUUUCUAA | 0.17 ± 0.044 | 0.00329 ± 0.0025
40 | UGGACCUACACUUGCAUAGUAUUUAGUUA | 1.33 ± 0.082 | 0.045 ± 0.0091

Row | Sequence | pre-steady-state target cleavage rate [1] | pre-steady-state target cleavage rate [2]
41 | UCGACCUACAGCUUGCUUACUAUUUAGUUA | 0.533 ± 0.021 | 0.0125 ± 0.0031
42 | UCCUGGUUGUGCUUGCAUAGUAUUUAGAAA | 0.0488 ± 0.012 | 0.00481 ± 0.0029
43 | UCCUGGAACUGCUUGCAUACUAUUUAGUUA | 0.225 ± 0.017 | 0.0166 ± 0.0051
44 | UCCUGGAUGAGCUUGCAUAGUAUAAAGUUA | 0.313 ± 0.037 | 0.00736 ± 0.0033
45 | UCGACCUACACCUUGCAUAGUAUUAAGUUA | 0.672 ± 0.07 | 0.0228 ± 0.0049
46 | UCCUGGAACAGCUUGCAUAGUAUUUGAGUUA | 0.504 ± 0.054 | 0.0299 ± 0.0081
47 | UCCAGCUACAGCAUGCAUAGUAUUUAGUUA | 0.934 ± 0.046 | 0.0212 ± 0.0041
48 | AGGACCUACAGCUUGCUUAGUUUUUAGUUA | 0.257 ± 0.018 | 0.0183 ± 0.0038
49 | UCCUCCUACAGCUUGCAUAGUCUUUAGUUA | 0.543 ± 0.029 | 0.0397 ± 0.0078
50 | UCCACCUACAGCUUGCUUAGUAUUUUGUUA | 0.641 ± 0.042 | 0.0136 ± 0.0027
51 | UCGACCUAGAGCUUGCAUUGUAUUUAGUUA | 0.892 ± 0.029 | 0.0238 ± 0.0066
52 | AGGAACCUACAGCUUGCAUAGUAUUUAGUUA | 1.23 ± 0.059 | 0.0809 ± 0.014
53 | AGGACCUACAGCUUGCUUAGUAUUUACAAA | 0.322 ± 0.046 | 0.00388 ± 0.0028
54 | UGGACCUAUCAGCUUGCAUAGUAUUUAGUUA | 1.48 ± 0.086 | 0.074 ± 0.016
55 | UCCUGGAACAGCUUGUCAUAGUAUUUAGUUA | 0.306 ± 0.03 | 0.00586 ± 0.0033
56 | UCCUCCUAGAGCUUGCAUAGUAUUUAGUAA | 0.602 ± 0.049 | 0.0152 ± 0.0033
57 | UCCUCCUACAGGUAGCAUAGUAUUUAGUUA | 1.13 ± 0.066 | 0.00438 ± 0.0018
58 | UCCUGGAUGUGCUUGCAUAGUAUUCAGUUA | 0.122 ± 0.017 | 0.0161 ± 0.004
59 | UCCUGGUACAGCUUGCAUAUAUUUAGUUA | 0.123 ± 0.021 | 0.00671 ± 0.0025
60 | UCCUGGAAGAGCUUGCAUAGUAAUUAGUUA | 0.507 ± 0.046 | 0.0151 ± 0.0056
